Test results published in article PMC11696715.
These are yes or no findings as the source states them, for the method shown. In cells and extracts the contact can be indirect. Some binding calls cover weakened binding; strength is not graded here.

Chains of the proteins cited; added tags and fusions are not shown. Lines headed by an entry give the natural chain unless they say otherwise; changes in a name come on top.
UniProt P58801: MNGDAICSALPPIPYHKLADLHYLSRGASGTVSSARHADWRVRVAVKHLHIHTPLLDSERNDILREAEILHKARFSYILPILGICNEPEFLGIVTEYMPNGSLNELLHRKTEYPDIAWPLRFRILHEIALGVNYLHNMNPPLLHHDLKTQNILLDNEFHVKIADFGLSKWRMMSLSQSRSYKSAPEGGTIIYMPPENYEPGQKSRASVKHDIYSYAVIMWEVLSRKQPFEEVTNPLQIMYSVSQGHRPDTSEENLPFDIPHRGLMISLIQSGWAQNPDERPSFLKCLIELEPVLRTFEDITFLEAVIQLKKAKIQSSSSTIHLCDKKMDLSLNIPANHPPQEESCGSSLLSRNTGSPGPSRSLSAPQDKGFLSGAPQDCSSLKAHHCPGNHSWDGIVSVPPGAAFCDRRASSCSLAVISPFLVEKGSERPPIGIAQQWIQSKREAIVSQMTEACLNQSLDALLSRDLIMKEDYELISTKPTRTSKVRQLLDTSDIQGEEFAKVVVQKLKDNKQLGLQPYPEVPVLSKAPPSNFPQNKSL
UniProt P63330: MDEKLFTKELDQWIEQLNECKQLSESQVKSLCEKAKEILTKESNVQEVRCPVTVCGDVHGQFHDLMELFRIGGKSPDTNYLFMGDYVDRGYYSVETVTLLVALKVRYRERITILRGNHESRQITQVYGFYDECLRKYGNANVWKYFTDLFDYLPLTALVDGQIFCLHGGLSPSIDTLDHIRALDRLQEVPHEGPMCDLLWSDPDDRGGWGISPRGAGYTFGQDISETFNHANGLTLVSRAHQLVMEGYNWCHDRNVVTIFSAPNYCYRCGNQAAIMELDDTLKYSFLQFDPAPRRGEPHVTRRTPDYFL

T1: Myb-like, SWIRM, and MPN domains 1 (MYSM1) (mouse (endogenous in primary chondrocytes)) (UniProt Q69Z66)
T1 sequence: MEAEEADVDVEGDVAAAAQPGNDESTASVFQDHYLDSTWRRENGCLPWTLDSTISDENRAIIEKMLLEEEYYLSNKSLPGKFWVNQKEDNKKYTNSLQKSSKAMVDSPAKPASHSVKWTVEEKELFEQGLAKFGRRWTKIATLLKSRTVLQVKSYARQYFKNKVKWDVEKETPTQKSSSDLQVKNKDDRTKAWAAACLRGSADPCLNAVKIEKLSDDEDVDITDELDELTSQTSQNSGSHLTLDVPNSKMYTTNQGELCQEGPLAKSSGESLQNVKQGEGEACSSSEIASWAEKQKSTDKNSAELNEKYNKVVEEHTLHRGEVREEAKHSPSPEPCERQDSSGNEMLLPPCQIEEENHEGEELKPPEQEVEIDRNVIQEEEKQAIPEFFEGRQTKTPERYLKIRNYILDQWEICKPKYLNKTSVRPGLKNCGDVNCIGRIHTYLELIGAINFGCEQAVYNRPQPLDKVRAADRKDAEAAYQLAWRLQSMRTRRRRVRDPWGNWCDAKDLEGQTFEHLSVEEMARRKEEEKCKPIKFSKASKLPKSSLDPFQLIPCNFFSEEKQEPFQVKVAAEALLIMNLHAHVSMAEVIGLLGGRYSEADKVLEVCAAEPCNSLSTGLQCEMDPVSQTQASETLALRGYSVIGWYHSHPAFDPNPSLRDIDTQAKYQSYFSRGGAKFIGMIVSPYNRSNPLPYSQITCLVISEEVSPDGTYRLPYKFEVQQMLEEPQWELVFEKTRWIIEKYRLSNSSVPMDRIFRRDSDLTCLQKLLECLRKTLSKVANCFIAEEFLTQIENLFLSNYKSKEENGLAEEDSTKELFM


Tests used:
[1] = target: T1, Myb-like, SWIRM, and MPN domains 1 (MYSM1) (mouse (endogenous in primary chondrocytes)); test: co-IP; endogenous proteins in lysate of mouse primary chondrocytes; primary antibody or IgG with protein A/G beads, overnight at 4 °C; RIPK2 co-immunoprecipitated with MYSM1 (Fig. 4h); also after IL-1β induction for 15, 30 and 60 minutes, which weakened the interaction (Fig. 4k)
[2] = target: Receptor-interacting protein kinase 2 (RIPK2) (mouse (endogenous in primary chondrocytes)) (UniProt P58801); test: co-IP; immunoprecipitation with anti-RIPK2 antibody from chondrocyte lysate, without IL-1β; blots for PP2Ac and MYSM1 (Fig. 6d)
[3] = target: Receptor-interacting protein kinase 2 (RIPK2) (mouse (endogenous in primary chondrocytes)) (UniProt P58801); test: co-IP; immunoprecipitation with anti-RIPK2 antibody from lysate of chondrocytes exposed to IL-1β for 6 hours; blots for PP2Ac and MYSM1 (Fig. 6d)
exogenous RIPK2 S176D = exogenous RIPK2 S176D (UniProt P58801); test: co-IP; immunoprecipitation of exogenous RIPK2, RIPK2 S176A and RIPK2 S176D with PP2Ac in mouse chondrocytes (Fig. 6h); the precipitating antibody is not stated
exogenous RIPK2 S176A = exogenous RIPK2 S176A (UniProt P58801); test: as above
[4] = target: exogenous RIPK2 (wild-type Ripk2 plasmid) (UniProt P58801); test: as above

| binding [1] | binding [2] | binding (exogenous RIPK2 S176D) | binding (exogenous RIPK2 S176A) | binding [4] | Molecule | binding [3] |
| --- | --- | --- | --- | --- | --- | --- |
| binds |  |  |  |  | Receptor-interacting protein kinase 2 (RIPK2) (from UniProt P58801 1-539) |  |
|  | binds | binds | binds | binds | Ppp2ca (PP2Ac), catalytic subunit (C subunit) of protein phosphatase 2A (from UniProt P63330 1-309) (enzyme) | no binding (condition: with IL-1β exposure for 6 hours) |
|  | binds |  |  |  | Myb-like, SWIRM, and MPN domains 1 (MYSM1) (protein, UniProt Q69Z66 1-819) MEAEEADVDVEGDVAAAAQPGNDESTASVFQDHYLDSTWRRENGCLPWTLDSTISDENRAIIEKMLLEEEYYLSNKSLPGKFWVNQKEDNKKYTNSLQKSSKAMVDSPAKPASHSVKWTVEEKELFEQGLAKFGRRWTKIATLLKSRTVLQVKSYARQYFKNKVKWDVEKETPTQKSSSDLQVKNKDDRTKAWAAACLRGSADPCLNAVKIEKLSDDEDVDITDELDELTSQTSQNSGSHLTLDVPNSKMYTTNQGELCQEGPLAKSSGESLQNVKQGEGEACSSSEIASWAEKQKSTDKNSAELNEKYNKVVEEHTLHRGEVREEAKHSPSPEPCERQDSSGNEMLLPPCQIEEENHEGEELKPPEQEVEIDRNVIQEEEKQAIPEFFEGRQTKTPERYLKIRNYILDQWEICKPKYLNKTSVRPGLKNCGDVNCIGRIHTYLELIGAINFGCEQAVYNRPQPLDKVRAADRKDAEAAYQLAWRLQSMRTRRRRVRDPWGNWCDAKDLEGQTFEHLSVEEMARRKEEEKCKPIKFSKASKLPKSSLDPFQLIPCNFFSEEKQEPFQVKVAAEALLIMNLHAHVSMAEVIGLLGGRYSEADKVLEVCAAEPCNSLSTGLQCEMDPVSQTQASETLALRGYSVIGWYHSHPAFDPNPSLRDIDTQAKYQSYFSRGGAKFIGMIVSPYNRSNPLPYSQITCLVISEEVSPDGTYRLPYKFEVQQMLEEPQWELVFEKTRWIIEKYRLSNSSVPMDRIFRRDSDLTCLQKLLECLRKTLSKVANCFIAEEFLTQIENLFLSNYKSKEENGLAEEDSTKELFM |  |
